Reference: the supplement of paper PMC6089552
Among all 3,200 compounds or so, about 300 (9.4%) showed activity. Only a part is listed here, and it is no random draw.

System: A673/TR/shEF
Assay: cell viability (LOESS-normalised, relative to median of negative controls) (log2 ratio); higher = more viable cells (less compound effect), active = hit call of the paper (over 3 MAD below the median)
Details: treatment time: 72 h
Summary of the method: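 For three days, A673/TR/shEF Ewing sarcoma cells in 384-well plates (1,500 per well) were treated with library compounds at two or more concentrations or with DMSO controls, after doxycycline had been added or withheld 24 h beforehand to induce EWS-FLI1 shRNA knockdown. Viability was read by CellTiter-Glo luminescence on an Envision reader. The data were LOESS-corrected per plate, divided by the median of negative controls and log2-transformed.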

[1] = 0.25 µM, library screen: screen1, EWS-FLI1 expression: high (no doxycycline)
[2] = 0.25 µM, library screen: screen1, EWS-FLI1 expression: low (doxycycline-induced shRNA knockdown)
[3] = 2.5 µM, library screen: screen1, EWS-FLI1 expression: high (no doxycycline)
[4] = 2.5 µM, library screen: screen1, EWS-FLI1 expression: low (doxycycline-induced shRNA knockdown)
[5] = 0.103 µM, library screen: screen3, EWS-FLI1 expression: high (no doxycycline)
[6] = 0.103 µM, library screen: screen3, EWS-FLI1 expression: low (doxycycline-induced shRNA knockdown)
[7] = 0.308 µM, library screen: screen3, EWS-FLI1 expression: high (no doxycycline)
[8] = 0.308 µM, library screen: screen3, EWS-FLI1 expression: low (doxycycline-induced shRNA knockdown)
[9] = 0.926 µM, library screen: screen3, EWS-FLI1 expression: high (no doxycycline)
[10] = 0.926 µM, library screen: screen3, EWS-FLI1 expression: low (doxycycline-induced shRNA knockdown)
[11] = 2.8 µM, library screen: screen3, EWS-FLI1 expression: high (no doxycycline)
[12] = 2.8 µM, library screen: screen3, EWS-FLI1 expression: low (doxycycline-induced shRNA knockdown)
[13] = 8.3 µM, library screen: screen3, EWS-FLI1 expression: high (no doxycycline)
[14] = 8.3 µM, library screen: screen3, EWS-FLI1 expression: low (doxycycline-induced shRNA knockdown)
[15] = 25 µM, library screen: screen3, EWS-FLI1 expression: high (no doxycycline)
[16] = 25 µM, library screen: screen3, EWS-FLI1 expression: low (doxycycline-induced shRNA knockdown)
[17] = 0.25 µM, library screen: screen2, EWS-FLI1 expression: high (no doxycycline)
[18] = 0.25 µM, library screen: screen2, EWS-FLI1 expression: low (doxycycline-induced shRNA knockdown)
[19] = 2.5 µM, library screen: screen2, EWS-FLI1 expression: high (no doxycycline)
[20] = 2.5 µM, library screen: screen2, EWS-FLI1 expression: low (doxycycline-induced shRNA knockdown)

Measured: cell viability (log2)

CC[C@@]1(O)C(=O)OCc2c1cc1n(c2=O)Cc2cc3cc(O)ccc3nc2-1
active: [1] -1.78 | [2] -0.267 | [3] -4.23 | [4] -1.06

O=c1c(O)c(-c2cc(O)c(O)c(O)c2)oc2cc(O)ccc12
inactive: [1] 0.128 | [2] -0.0317 | [3] 0.0648 | [4] 0.111

Cc1cccc(-c2[nH]c(C(C)(C)C)nc2-c2ccc3nccnc3c2)n1
inactive: [5] -0.0325 | [6] -0.0179 | [7] -0.00285 | [8] -0.00639 | [9] -0.0155 | [10] -0.0838 | [11] -0.0686 | [12] -0.0559 | [13] -0.0715 | [14] 0.000661 | [15] -0.0631 | [16] -0.000225

CCCCCCCCC#CCC#CCC#CCCCC(=O)O
inactive: [17] 0.185 | [18] 0.0923 | [19] 0.146 | [20] 0.00889

C[C@@H](c1ncncc1F)[C@](O)(Cn1cncn1)c1ccc(F)cc1F
inactive: [5] 0.083 | [6] 0.08 | [7] 0.0719 | [8] 0.0723 | [9] 0.0957 | [10] 0.0983 | [11] -0.0499 | [12] 0.0827 | [13] 0.0539 | [14] 0.0587 | [15] 0.12 | [16] 0.0979

O=c1cc(-c2cc(O)c(O)c(O)c2)oc2cc(O)cc(O)c12
inactive: [1] 0.0803 | [2] -0.0396 | [3] 0.109 | [4] 0.0724

O=C(O)Cc1ccccc1Nc1c(Cl)cccc1Cl
inactive: [5] 0.0847 | [6] -0.0311 | [1] 0.142 | [2] -0.0101 | [17] 0.241 | [18] 0.103 | [7] 0.0924 | [8] 0.103 | [9] 0.163 | [10] 0.0701 | [3] 0.178 | [4] 0.16 | [19] 0.2 | [20] 0.14 | [11] 0.0415 | [12] 0.0673 | [13] 0.045 | [14] 0.106 | [15] 0.0712 | [16] 0.146

C[C@@H]1O[C@@H](Oc2c(-c3ccc(O)c(O)c3)oc3cc(O)cc(O)c3c2=O)[C@H](O)[C@H](O)[C@H]1O
inactive: [1] 0.18 | [2] 0.0918 | [3] 0.201 | [4] 0.0421

N=c1ccn2c(n1)O[C@H]1[C@H](O)[C@@H](CO)O[C@H]12
active: [1] -0.254 | [17] -0.122 | [3] -1.03 | [4] -0.19 | [19] -0.641
inactive: [2] 0.0178 | [18] 0.0732 | [20] 0.0215

CC(=O)Oc1c(C)cccc1C(=O)O
inactive: [1] 0.0927 | [2] 0.104 | [3] 0.174 | [4] 0.0697

C[C@]12C=CC(=O)C=C1CC[C@@H]1[C@@H]2[C@@H](O)C[C@@]2(C)[C@H]1CC[C@]2(O)C(=O)CO
inactive: [5] 0.064 | [6] 0.0887 | [1] 0.0651 | [2] 0.0697 | [7] 0.104 | [8] 0.082 | [9] 0.0205 | [10] 0.129 | [3] 0.153 | [4] 0.0868 | [11] 0.0436 | [12] 0.149 | [13] 0.0419 | [14] 0.0583 | [15] -0.00834 | [16] 0.116

O=C(O)c1cc(=O)c2cccc(O)c2[nH]1
inactive: [1] 0.0329 | [2] 0.0229 | [3] 0.163 | [4] 0.138

O=c1[nH]cc(F)c(=O)[nH]1
inactive: 0.025 µM, library screen: screen2, EWS-FLI1 expression: high (no doxycycline) 0.207 | 0.025 µM, library screen: screen2, EWS-FLI1 expression: low (doxycycline-induced shRNA knockdown) 0.0564 | [5] 0.0782 | [6] 0.0161 | [1] 0.0591 | [2] -0.00519 | [17] 0.172 | [18] 0.0764 | [7] 0.113 | [8] 0.0726 | [9] 0.13 | [10] 0.0535 | [3] 0.0991 | [4] 0.0157 | [19] 0.104 | [20] 0.00707 | [11] 0.139 | [12] 0.018 | [13] 0.0774 | [14] 0.0748 | 25 µM, library screen: screen2, EWS-FLI1 expression: low (doxycycline-induced shRNA knockdown) -0.051 | [15] -0.0664 | [16] -0.00616
active: 25 µM, library screen: screen2, EWS-FLI1 expression: high (no doxycycline) -0.375

CS(=O)(=O)c1ccc([C@@H](O)[C@@H](CO)NC(=O)C(Cl)Cl)cc1
inactive: [1] 0.062 | [2] 0.0659 | [3] 0.0213 | [4] 0.137

CC(C)Cc1ccc([C@H](C)C(=O)O)cc1
inactive: [17] 0.0883 | [18] 0.0771 | [19] 0.157 | [20] 0.112

N[C@H](C(=O)O)[C@H](O)C(=O)O
inactive: [1] 0.18 | [2] 0.0569 | [17] 0.178 | [18] 0.0677 | [3] 0.199 | [4] 0.0519 | [19] 0.126 | [20] 0.101

COC(=O)[C@H]1[C@H]2C[C@@H]3c4[nH]c5cc(OC)ccc5c4CCN3C[C@H]2C[C@@H](OC(=O)c2cc(OC)c(OC)c(OC)c2)[C@@H]1OC
inactive: [5] 0.0733 | [6] 0.0139 | [1] 0.204 | [2] 0.178 | [7] 0.0695 | [8] 0.0618 | [9] -0.0278 | [10] 0.0749 | [3] 0.167 | [4] 0.286 | [11] 0.0985 | [12] 0.0485 | [13] 0.105 | [14] -0.0147 | [15] 0.0954 | [16] 0.0118

Cc1ccsc1C=C1SC(=S)N(CC(=O)O)C1=O
inactive: [1] 0.0973 | [2] 0.0799 | [3] 0.133 | [4] 0.152

N[C@H](Cc1ccccc1)C(=O)O
inactive: [1] 0.0727 | [2] 0.054 | [3] 0.169 | [4] 0.0792

O=c1c(-c2ccc(O)cc2)coc2cc(O)cc(O)c12
inactive: 0.025 µM, library screen: screen1, EWS-FLI1 expression: high (no doxycycline) 0.0443 | 0.025 µM, library screen: screen1, EWS-FLI1 expression: low (doxycycline-induced shRNA knockdown) -0.0387 | [1] 0.00753 | [2] 0.0689 | [17] 0.117 | [18] 0.0875 | [3] 0.106 | [4] 0.0455 | [19] 0.0598 | [20] 0.0712 | 25 µM, library screen: screen1, EWS-FLI1 expression: high (no doxycycline) 0.00624 | 25 µM, library screen: screen1, EWS-FLI1 expression: low (doxycycline-induced shRNA knockdown) 0.0488
